# Experimental data taken from PubChem BioAssay AID624417 (National Center for Advancing Translational Sciences (NCATS), 2012).
# About 6,400 (1.6%) of roughly 410,000 compounds were called active. The shares of active, inactive and inconclusive entries below differ from those in the screen. Calls follow the shape of the dose curve; as a rule, active = well fitted inhibition curve with a large enough effect; inconclusive = small, poorly fitted or top-dose-only effect; inactive = no such curve, though single readings can be large or run the other way. Potencies of inconclusive entries are left out as doubtful fits.
# Target: Glucagon-like peptide 1 receptor (Homo sapiens) (UniProt P43220)
# Assay: qHTS of GLP-1 Receptor Inverse Agonists (Inhibition Mode); also: nearly all actives have a fitted effect of over 55% in size
# Settings: HEK293 GLP-1R CRE-luciferase, luminescence, 24 h, GLP-1R form is constitutively active; activity change, negative = inhibition: at 38.3 µM (top of the series) unless noted
# How it was run: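 Inverse agonists were sought by their lowering of basal cAMP reporter luciferase output in HEK293 cells stably carrying constitutively active human GLP-1R, after 24 h compound treatment.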
# % is scaled to controls: 0 for no effect and ±100 for the full control effect; potency is read from the fitted curve at half-maximal effect; tags tell the direction and shape of the fitted curve.
# Sequence of UniProt P43220 (P43220 whole entry, looked up): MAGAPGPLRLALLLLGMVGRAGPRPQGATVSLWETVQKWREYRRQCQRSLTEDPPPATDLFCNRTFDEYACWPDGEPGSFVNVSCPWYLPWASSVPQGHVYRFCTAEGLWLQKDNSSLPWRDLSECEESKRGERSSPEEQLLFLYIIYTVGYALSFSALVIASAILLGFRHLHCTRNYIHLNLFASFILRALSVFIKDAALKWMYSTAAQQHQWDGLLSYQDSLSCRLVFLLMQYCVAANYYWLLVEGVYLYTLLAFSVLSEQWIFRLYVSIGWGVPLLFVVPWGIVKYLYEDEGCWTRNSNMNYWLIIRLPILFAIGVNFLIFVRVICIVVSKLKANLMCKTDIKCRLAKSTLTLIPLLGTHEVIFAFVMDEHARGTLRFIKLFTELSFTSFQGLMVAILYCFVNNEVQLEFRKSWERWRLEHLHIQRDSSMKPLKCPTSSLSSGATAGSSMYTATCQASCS
Compound,Potency,"activity change, negative = inhibition"
S=C1NC(c2cccs2)=CC(c2ccc(Br)cc2)N1 (stereo not given),"inconclusive [inhibitor, partial curve, poor fit]",
Cc1ccc(Nc2cccccc2=O)cc1,"inconclusive [inhibitor, single point]",
Cc1c(C(=O)Nc2cccc([N+](=O)[O-])c2)cnn1-c1ccccc1,"inconclusive [inhibitor, single point]",
Cc1cc(/C=N/NC(N)=S)c(C)n1-c1ccc(Cl)c(Cl)c1,"inconclusive [inhibitor, partial curve, poor fit]",
O=C(Nc1nnc(-c2ccc(F)cc2)s1)c1ccco1,,inactive: 15.1%
Fc1ccc2nncc(SCc3ccccc3Cl)c2c1,"inconclusive [inhibitor, partial curve, poor fit]",
O=C(NCc1ccccc1CN1CCCC1)c1cc2cc(Cl)ccc2o1,"inconclusive [inhibitor, single point]",
Cc1ccc(-n2nc3c(=O)n(CC(=O)NC(C)CCc4ccccc4)nc(C)c3c2C)cc1 (stereo not given),"inconclusive [inhibitor, full curve]",
O=C(CCCOc1ccccc1)Nc1cccc(S(=O)(=O)N2CCCCC2)c1,"inconclusive [inhibitor, single point]",
CC(C)(C)C1C/C(=C/c2ccccn2)C(=O)/C(=C/c2ccccn2)C1 (stereo not given),"inconclusive [inhibitor, full curve, poor fit]",
COc1ccc(CCC(=O)Nc2sccc2C#N)cc1,,inactive: -16.8%
CCC/C=C/c1ccc(CN2C(CC(C)C)C(=O)N(Cc3cn(Cc4ccco4)nn3)CCS2(=O)=O)cc1 (stereo not given),"inconclusive [inhibitor, single point]",
COc1ccc(C2CC(c3ccc(Cl)cc3)=NN2c2ccc(S(N)(=O)=O)cc2)cc1 (stereo not given),"inconclusive [inhibitor, single point]",
Cn1c(N)c(C(=O)CN2CCc3ccccc3C2)c(=O)n(C)c1=O,"inconclusive [inhibitor, partial curve]",
O=C(C1CCC(CNS(=O)(=O)c2cccs2)CC1)N1CCN(c2ccc(F)cc2)CC1 (stereo not given),"inconclusive [inhibitor, partial curve, poor fit]",
O=C(c1ccc(OC2CCN(Cc3cccc(F)c3)CC2)cc1)N1CCCCC1,"inconclusive [inhibitor, partial curve, poor fit]",
COC(=O)[C@]1(Cc2ccccc2)N[C@H](c2ccc(-c3ccc(Cl)c(Cl)c3)cc2)[C@@H]2C(=O)N(C)C(=O)[C@@H]21,"inconclusive [inhibitor, single point]",
COc1ccc(NS(=O)(=O)c2cc(NC(=O)c3cncc(Br)c3)ccc2OC)cc1,"inconclusive [inhibitor, single point]",
Cc1ccc(N=N/C(=C\O)C(=O)c2ccc(Cl)cc2)cc1,"inconclusive [inhibitor, single point]",
O=C(Nc1nc(-c2ccc(F)cc2)cs1)C1CCN(C(=O)c2ccc(F)cc2)CC1,"inconclusive [inhibitor, partial curve, poor fit]",

Compound,Potency,"activity change, negative = inhibition"
Cc1cc(C)c2c(n1)SCC(=O)N2CC(=O)Nc1ccc(Br)c(C)c1,"inconclusive [inhibitor, single point]",
COC(=O)C1=C(C(=O)OC)C(C(=O)OC)C(C(=O)OC)C(C(=O)OC)(C(=O)OC)C(C(=O)OC)=C1C(=O)OC (stereo not given),"inconclusive [inhibitor, partial curve, poor fit]",
Cc1ccc(-n2c(=O)c3oc4ccccc4c3n(CC(=O)Nc3ccccc3)c2=O)cc1C,"inconclusive [inhibitor, partial curve, poor fit]",
O=C(CNC1CCCCC1)NCC1(c2ccccc2)CCCC1,"inconclusive [inhibitor, partial curve]",
CCc1cccc(N=c2c([N+](=O)[O-])nn(-c3ccc(Cl)cc3)n2O)c1,"inconclusive [inhibitor, single point]",
O=c1c2c3c(sc2nc2n1CCCCC2)CCC3,"inconclusive [inhibitor, single point]",
CC1(C(=O)Nc2ccc3c(c2)OCO3)Cc2c(-c3cccc(C(F)(F)F)c3)ccnc2O1 (stereo not given),"inconclusive [inhibitor, single point]",
COc1ccc(C(=O)NC(C)C2CC3CCC2C3)c(OC)c1 (stereo not given),active: 10 µM,
CCN(CC)S(=O)(=O)c1ccc(/C=C/C(=O)NC2CCCCC2)cc1,"inconclusive [inhibitor, partial curve, poor fit]",
Cc1ccccc1NC(=O)N(O)C1(C#N)CCCCC1,,inactive: 16.9%
Cc1cccc(NC(=O)CSc2cc(C)c3ccccc3n2)c1,"inconclusive [inhibitor, single point]",
Nc1ccc(S(=O)(=O)N2CCCc3ccccc32)cc1,"inconclusive [inhibitor, partial curve, poor fit]",
O=C(NCC12CC3CC(CC(C3)C1)C2)c1cc2nc(-c3ccc(F)cc3)cc(C(F)(F)F)n2n1,,inactive: -4.89%
O=C(CSc1nc(C(F)(F)F)cc(=O)[nH]1)N1CCCC1,,inactive: 9.74%
COc1ccc(-c2onc(C)c2C)cc1S(=O)(=O)NC1CCC(C)CC1 (stereo not given),"inconclusive [inhibitor, single point]",
CSCCC(NC(=O)COc1ccccc1)C(=O)N(C)Cc1cccc(F)c1 (stereo not given),"inconclusive [inhibitor, partial curve, poor fit]",
CCc1ccc(NC(=S)N2CCCCCCC2)cc1,"inconclusive [inhibitor, single point]",
C=CCn1c(SCC(=O)Nc2cc(C)on2)nc2sc3c(c2c1=O)CCCC3,,inactive: -5.6%
C[C@H](CO)N1C[C@H](C)[C@H](CN(C)S(=O)(=O)c2cccc(F)c2)Oc2cc(Br)ccc2S1(=O)=O,"inconclusive [inhibitor, single point]",
COc1ccc(OCC(=O)NC2CCCN(Cc3ccc(Cl)cc3)C2)cc1 (stereo not given),"inconclusive [inhibitor, partial curve, poor fit]",

Compound,Potency,"activity change, negative = inhibition"
Cc1ccc(N2CC(C(=O)N3CCC4(CC3)CC(=O)c3ccccc3O4)CC2=O)cc1C (stereo not given),"inconclusive [inhibitor, partial curve, poor fit]",
COc1cc(NC(=O)Cn2cc(S(=O)(=O)c3ccccc3)c(=O)c3ccccc32)cc(OC)c1,"inconclusive [inhibitor, single point]",
CCSC(=Nc1ccccc1)Nc1ccccc1,"inconclusive [inhibitor, partial curve, poor fit]",
Cc1ccc(OCCN2CCC2(C)C(=O)NCc2cccc3ccccc23)cc1 (stereo not given),"inconclusive [inhibitor, partial curve, poor fit]",
O=C(O)c1ccc(/C=N/Nc2ncc(C(F)(F)F)cc2Cl)cc1,,inactive: 4.93%
CCOc1cc(C2c3c(-c4ccccc4O)n[nH]c3C(=O)N2CCc2ccccc2)ccc1O (stereo not given),"inconclusive [inhibitor, single point]",
O=C(CN1C(=O)NC2(CCCC2)C1=O)N1CCN(c2ccc(C(F)(F)F)cc2[N+](=O)[O-])CC1,"inconclusive [inhibitor, partial curve, poor fit]",
CC1CCC(C(C)C)C(OC(=O)Cn2c(-c3ccc(F)cc3)[n+](C)c3ccccc32)C1 (stereo not given),"inconclusive [inhibitor, single point]",
COc1ccc(NS(=O)(=O)c2ccc3[nH]c4c(c3c2)CCCCCC4)cc1,"inconclusive [inhibitor, single point]",
CCOC(=O)c1ccc(Nc2ncnc3nc[nH]c23)cc1,,inactive: -2.39%
C[C@@H](c1ccccc1)N1C[C@H](COCc2ccccc2)Oc2cc(N3CC[C@@H](N(C)C)C3)ccc2S1(=O)=O,"inconclusive [inhibitor, full curve]",
CC(C)Oc1ccc(C(=O)Nc2ccc(Cl)c(S(=O)(=O)Nc3ccc(Cl)cc3)c2)cc1,"inconclusive [inhibitor, partial curve, poor fit]",
O=c1oc2ccccc2c(Nc2ccc(Cl)cc2)c1[N+](=O)[O-],"inconclusive [inhibitor, partial curve, poor fit]",
Fc1ccc(CNc2nc(-c3ccccc3)cc(C(F)(F)F)n2)cc1,"inconclusive [inhibitor, partial curve, poor fit]",
CC1Sc2ccc(S(=O)(=O)N3CCC(C(=O)NCCc4ccccc4)CC3)cc2NC1=O (stereo not given),"inconclusive [inhibitor, partial curve, poor fit]",
COc1cccc(OCc2nc3ccccc3n2CCOc2cccc(C)c2)c1,"inconclusive [inhibitor, single point]",
O=Cc1ccc(OC2OCCOC2Oc2ccc(C=O)cc2)cc1 (stereo not given),"inconclusive [inhibitor, single point]",
Cc1ccccc1CN1CCCN(CC(=O)Nc2c(C)cccc2C)S1(=O)=O,,inactive: -7.38%
CC1CN(C(=O)c2ccc(-c3ccccc3Cl)o2)CC(C)O1 (stereo not given),"inconclusive [inhibitor, single point]",
Cc1cccc(CS(=O)(=O)c2ncc(Cl)c(C(=O)NCc3ccccc3)n2)c1,"inconclusive [inhibitor, partial curve, poor fit]",
